Measured values: publication PMC6919601, “Identification of Plasmodium dipeptidyl aminopeptidase allosteric inhibitors by high throughput screening” (PLoS ONE, 2019)
“And” between values parts separate entries of the source, which are not always exact repeats. Equal values may be shown once. Out of some 110,000 compounds screened, about 230 (0.21%) showed an effect of 50% or more. This is one part of the list.

What follows are compounds tested against DPAP1 (Plasmodium falciparum, UniProt Q8IIJ9) (assay: primary screen, percent inhibition; read by cleavage of a fluorogenic dipeptide substrate; higher = more effect of the substance).
Parameters: species or system P. falciparum D10 trophozoite lysates; single well
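Note: 30 min substrate incubation versus DMSO and 10 µM JCP410 controls.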

Chain of DPAP1 (Q8IIJ9 whole entry, looked up): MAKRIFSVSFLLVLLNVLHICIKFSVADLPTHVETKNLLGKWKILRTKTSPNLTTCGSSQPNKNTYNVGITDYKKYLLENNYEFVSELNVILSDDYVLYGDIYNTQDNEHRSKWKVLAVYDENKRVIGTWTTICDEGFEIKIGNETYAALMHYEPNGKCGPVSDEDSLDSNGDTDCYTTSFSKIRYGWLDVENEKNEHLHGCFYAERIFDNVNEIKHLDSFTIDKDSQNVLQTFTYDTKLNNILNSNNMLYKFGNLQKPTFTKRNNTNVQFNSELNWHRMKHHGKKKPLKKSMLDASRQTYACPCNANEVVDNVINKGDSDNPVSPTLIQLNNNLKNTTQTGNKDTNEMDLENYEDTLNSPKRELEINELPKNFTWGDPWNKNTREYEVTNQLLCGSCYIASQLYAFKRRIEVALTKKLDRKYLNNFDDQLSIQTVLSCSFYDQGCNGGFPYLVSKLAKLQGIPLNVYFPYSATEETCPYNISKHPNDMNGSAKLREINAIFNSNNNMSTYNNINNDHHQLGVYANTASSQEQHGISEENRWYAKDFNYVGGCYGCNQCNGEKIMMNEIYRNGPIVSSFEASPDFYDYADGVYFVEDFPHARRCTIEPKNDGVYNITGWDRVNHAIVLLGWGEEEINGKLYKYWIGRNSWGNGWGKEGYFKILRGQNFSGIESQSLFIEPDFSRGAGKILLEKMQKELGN

Row | Structure (SMILES) | % Inhibition @ 10 uM
1 | COCc1cc(C)nc(SCC(=O)N2CCCCC2)c1C#N | -2.54%
2 | COc1cccc(N(CC(=O)Nc2cc(C)cc(C)c2)S(=O)(=O)c2ccccc2)c1 | 2.33%
3 | CC12CCC(C(=O)Nc3c(Cl)cccc3Cl)(C(=O)C1=O)C2(C)C (centres unmarked) | -3.08%
4 | O=C(CCC1COc2ccccc2O1)Nc1ncc(C(F)(F)F)cc1Cl (centres unmarked) | 4.58%
5 | Cc1ccc(S(=O)(=O)NCCc2cc3c(C)ccc(C)c3nc2O)cc1 | 2.54%
6 | O=C(Cn1ncn2c(cc3ccccc32)c1=O)NCc1ccccc1 | -3.47%
7 | CCn1nc(C)c(NC(=O)c2ccc(Cl)cc2)c1C | 11.9%
8 | Cn1c(C2=C(N)N(Cc3ccccc3Cl)CC2=O)nc2ccccc21 | 0.486%
9 | CCOC(=O)N1CCN(c2cc(C)nc3nc(-c4ccc(OC)cc4)nn23)CC1 | 0.758%
10 | CC(=O)c1ccc(NC(=O)C2C3CC/C=C\CCC32)cc1 (centres unmarked) | 3.69%
11 | Cc1c(Cl)cccc1NC(C)CCc1ccc(O)cc1 (centres unmarked) | -5.44%
12 | CC(C)Oc1ccc(NC(N)=O)cc1 | -1.76%
13 | O=C(Nc1cccc(Cl)c1)c1ccc(F)cc1 | 2.47%
14 | CC(C)(C)C(=O)NCCc1nc2ccccc2n1CCc1ccccc1 | 4.3%
15 | Cc1ccc(CSc2n[nH]c(N)n2)c(C)c1 | -3.36%
16 | N=C1/C(=C/c2ccc(SCc3ccccc3)o2)C(=O)N=C2SC=CN12 | -9.07%
17 | COc1ccc(CN2CCN(Cc3cc(OC)c(OC)c(OC)c3)CC2)cc1Br | -3.49%
18 | CCOC(=O)c1sc(N2C(=O)C(O)=C(C(=O)c3ccco3)C2c2ccco2)nc1C (centres unmarked) | 3.8%
19 | CC1(C)CC(=O)C(/C=N/CCN2CCN(C(=O)Cc3ccc(Cl)cc3)CC2)=C(O)C1 | 4.32% and 1.26%
20 | CCN(CC)CCN1CC(=O)C(c2nc3ccccc3[nH]2)=C1N | -1.22%
21 | CCOc1cc(C2C=C(c3ccc(OC)cc3)Nc3nnnn32)ccc1OC(F)F (centres unmarked) | -3.37%
22 | CCOC(=O)c1c(C)[nH]c(C)c1S(=O)(=O)N(C)Cc1ccco1 | -10%
23 | CCN1C(C(=O)c2ccccc2)=C(OC(=O)c2ccccc2Cl)c2ccccc2S1(=O)=O | 3.74%
24 | CCC(C)[C@@H](C(=O)NCc1ccc(F)cc1)N1Cc2ccccc2C1=O (some centres unmarked) | -2.25%
25 | CC1=C(c2ccc(C)c(C)c2)S(=O)(=O)N(CC(=O)NCc2ccccc2Cl)C1=O | 0.762%

Row | Structure (SMILES) | % Inhibition @ 10 uM
26 | O=C(CC(c1ccccc1)c1c(O)c2ccccc2oc1=O)c1ccc(-c2ccccc2)cc1 (centres unmarked) | -3.38%
27 | Cc1oc2c(c1C(=O)NC(C)(C)C)C(=O)c1ccccc1C2=O | -5.41%
28 | O=C(O)CCNCc1cccs1 | 4.61%
29 | O=C(COc1ccc(Cl)cc1)Nc1ccccn1 | 5.59%
30 | O=C(NCCO)c1cccc2c1-c1ccccc1C2=O | 1.05%
31 | Cc1noc(C)c1CCC(=O)O | 2.29%
32 | COc1ccc(CCNc2cnn(C34C[C@@H]5C[C@@H](CC(C(=O)O)(C5)C3)C4)c(=O)c2Cl)cc1OC | -2.8%
33 | O=c1[nH]c2ccccc2c(=O)n1CCSc1ccc(Cl)cc1 | 1.92%
34 | CC(C)C(=O)/N=C1\SC2CS(=O)(=O)CC2N1CCc1ccccc1 (centres unmarked) | -1.15%
35 | NC(=O)CN(c1ccc(F)cc1)S(=O)(=O)c1ccc2c(c1)OCCO2 | 14.6%
36 | O=C(Nc1ccc(F)cc1F)c1cc2nc(C(F)F)cc(C(F)F)n2n1 | -3.72%
37 | CC(O)CN(CC(C)O)CC(c1ccccc1)c1ccccc1 (centres unmarked) | -8.99%
38 | Cc1ccc(S(=O)(=O)c2nnn3c2nc(NC(C)c2ccccc2)c2ccccc23)cc1 (centres unmarked) | -12.6%
39 | COc1ccc(-c2c(Cc3ccccc3)nn3c(O)c4c(nc23)CCCC4)cc1 | 3.32%
40 | c1cncc(-c2nn3c(Cn4nnc5ccccc54)nnc3s2)c1 | 4.47%
41 | CSc1ncc(C(=O)Nc2cccnc2)c(C(F)(F)F)n1 | -0.401%
42 | COc1ccccc1CN1CCCC1 | 1.08%
43 | CCc1c(C#N)c(N)nc(SCC(=O)c2cc3ccccc3oc2=O)c1C#N | -4.26%
44 | O=C(c1cccc(F)c1)N1CCN(Cc2ccccc2)CC1 | 11%
45 | CCOc1ccc(NS(=O)(=O)c2ccc(NC(=O)c3ccccc3)cc2)cc1 | 0.727%
46 | Cc1ccc(NC(=O)CCn2cnc3onc(-c4ccc(F)cc4)c3c2=O)nc1 | 4.58%
47 | COc1cccc(-c2cc(C(=O)NC3CC3)c3ccccc3n2)c1 | 2.08%
48 | Cc1cccc(NC(=O)C(NC(=O)c2ccccc2)C(C)C)n1 (centres unmarked) | -8.55%
49 | CC12CC=CCC1C(=O)N(c1ccc(Br)cc1)C2=O (centres unmarked) | -4.71%
50 | CC(C)(C)NC(=O)c1cnn(-c2ccccc2)c1-n1cccc1 | 6.16%
